# Reference: PubChem BioAssay AID504332 (National Center for Advancing Translational Sciences (NCATS), 2011)
# In all, about 350,000 compounds went through this assay and about 31,000 (8.9%) were called active. Inconclusive results, whose numbers are uncertain, are shown with a selection of clear calls. Calls follow the shape of the dose curve; as a rule, active = well fitted inhibition curve with a large enough effect; inconclusive = small, poorly fitted or top-dose-only effect; inactive = no such curve, though single readings can be large or run the other way. Potencies of inconclusive entries are doubtful fits and often do not repeat.
# Target: Histone-lysine N-methyltransferase EHMT2 (Homo sapiens) (UniProt Q96KQ7)
# UniProt Q96KQ7, sequence (Q96KQ7 whole entry, looked up): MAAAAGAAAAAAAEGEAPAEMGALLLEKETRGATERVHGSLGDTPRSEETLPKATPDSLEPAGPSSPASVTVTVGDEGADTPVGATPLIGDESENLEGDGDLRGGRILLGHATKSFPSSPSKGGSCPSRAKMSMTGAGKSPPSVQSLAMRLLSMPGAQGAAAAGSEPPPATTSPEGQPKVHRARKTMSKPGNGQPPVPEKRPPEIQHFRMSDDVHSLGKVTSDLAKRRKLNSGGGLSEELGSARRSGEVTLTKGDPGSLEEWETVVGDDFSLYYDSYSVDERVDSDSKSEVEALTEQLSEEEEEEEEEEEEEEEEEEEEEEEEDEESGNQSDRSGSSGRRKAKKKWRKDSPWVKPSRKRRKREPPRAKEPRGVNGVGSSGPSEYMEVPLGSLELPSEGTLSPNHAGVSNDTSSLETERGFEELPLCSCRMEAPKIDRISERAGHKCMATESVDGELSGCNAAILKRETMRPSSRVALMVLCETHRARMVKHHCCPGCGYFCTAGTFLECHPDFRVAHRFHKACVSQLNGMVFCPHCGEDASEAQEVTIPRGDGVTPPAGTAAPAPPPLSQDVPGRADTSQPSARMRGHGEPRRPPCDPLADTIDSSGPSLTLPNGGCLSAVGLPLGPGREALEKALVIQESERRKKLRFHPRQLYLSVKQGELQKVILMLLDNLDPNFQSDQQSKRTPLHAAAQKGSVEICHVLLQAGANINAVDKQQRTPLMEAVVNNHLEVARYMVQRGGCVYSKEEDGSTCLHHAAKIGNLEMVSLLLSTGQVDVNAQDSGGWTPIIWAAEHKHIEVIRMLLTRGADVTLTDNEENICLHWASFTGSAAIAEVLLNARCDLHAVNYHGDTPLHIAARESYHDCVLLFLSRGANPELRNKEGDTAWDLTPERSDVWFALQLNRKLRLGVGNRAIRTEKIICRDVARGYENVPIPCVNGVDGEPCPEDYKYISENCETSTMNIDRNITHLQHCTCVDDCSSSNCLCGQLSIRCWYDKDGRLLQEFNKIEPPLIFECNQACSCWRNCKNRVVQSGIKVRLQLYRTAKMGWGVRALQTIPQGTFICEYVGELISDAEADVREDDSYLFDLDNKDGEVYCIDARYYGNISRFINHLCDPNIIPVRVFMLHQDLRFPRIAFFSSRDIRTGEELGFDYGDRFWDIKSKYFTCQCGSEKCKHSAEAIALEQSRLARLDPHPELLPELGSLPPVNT
# Assay: qHTS Assay for Inhibitors of Histone Lysine Methyltransferase G9a; also: nearly all actives have a fitted effect of over 75% in size
# Settings: G9a H3K9 monomethylation, AlphaScreen, 2 h; activity, negative = inhibition: at 59 µM (top of the series) unless noted
# How it was run: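 Readings reflect AlphaScreen signal from monomethyl-H3K9 antibody detection. HMT at 20 nM; substrate b-H3K9 500 nM; cofactor SAM 20 uM; 2 h RT reaction; compounds tested as titrations in qHTS with 15 min preincubation.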
# % is scaled to controls: 0 for no effect and ±100 for the full control effect; potency is read from the fitted curve at half-maximal effect; tags tell the direction and shape of the fitted curve.
SMILES,"activity, negative = inhibition",Potency
O=C(O)c1ccc2c(=O)n3c(nc2c1)/C(=C/c1ccccc1OC(F)F)CC3,inactive: -34.8% [at 102 µM],
CCCC(=O)c1ccc(N2CCN(C(=O)c3ccccc3)CC2)c(F)c1,inactive: 9.34%,
Cc1[nH]c2ccccc2c1-c1csc(NC(=O)CSCC(=O)O)n1,,"inconclusive: 50.1 µM [inhibitor, partial curve]"
CN(C)c1cccc2c(/C=N/O)ccc(N(C)C)c12,,"inconclusive: 50.1 µM [inhibitor, partial curve, poor fit]"
Clc1cc2c(c(CSc3nc4ccccc4n4cccc34)c1)OCOC2,,active: 44.7 µM
CCOC(=O)Cc1csc(NC(=O)NC2(C(F)(F)F)Oc3ccccc3O2)n1,,active: 8.91 µM
CCN(CC)S(=O)(=O)c1ccc(N2CCCC2)c(NC(=O)Cc2ccc(OC)cc2)c1,,"inconclusive: 50.1 µM [inhibitor, partial curve, poor fit]"
CC(CC(C)C(=O)N1CCOCCN(C(=O)C(C)CC(C)C(=O)O)CCOCC1)C(=O)O (centres undefined),,"inconclusive: 56.2 µM [inhibitor, single point]"
O=C(Nc1cccs1)Nc1ccccc1Br,,"inconclusive: 70.8 µM [inhibitor, single point]"
CCc1ccc(C2c3c(oc4cc(C)c(C)cc4c3=O)C(=O)N2c2nc(C)c(C(=O)OC)s2)cc1 (centres undefined),inactive: -3.98%,
Cc1ccnc(-n2c(C)cc(/C=N/NC(=O)COc3cccc4cccnc34)c2C)c1,,"inconclusive: 79.4 µM [inhibitor, partial curve, poor fit]"
O=C(c1ccccc1)c1cc2c(cc1[N+](=O)[O-])OCCO2,,"inconclusive: 44.7 µM [inhibitor, partial curve]"
Cc1cc(Cl)ccc1NC(=O)CCCn1nc(C)c2c(C)n(-c3ccccc3)nc2c1=O,inactive: 1.12%,
c1csc(-c2csc3ncnc(NCCCN4CCOCC4)c23)c1,,"inconclusive: 8.91 µM [inhibitor, partial curve]"
CC(CS(=O)(=O)c1ccc2c(c1)NC(=O)CS2)C(=O)NCc1ccccc1Cl (centres undefined),inconclusive: -115% [inhibitor],
Cc1cc(Br)c(S(=O)(=O)n2nnc3ccccc32)cc1C,inconclusive: -75.9% [inhibitor],
COc1cccc(C(=O)NC(=S)Nc2nnn(C)n2)c1,,active: 2 µM
COc1cc(C2Nc3ccccc3-c3nnc(SCc4ccc(C)cc4)nc3O2)cc(OC)c1O (centres undefined),,active: 7.08 µM
C/C(=N\NC(=O)C1CC1)c1ccccc1Br,,"inconclusive: 17.8 µM [inhibitor, full curve]"
CCOC(=O)C1=C(CN2CCc3ccccc32)NC(=O)NC1c1ccc(Cl)cc1 (centres undefined),,"inconclusive: 25.1 µM [inhibitor, single point]"
COc1ccc(OC)c(C2C(C(=O)O)c3ccccc3C(=O)N2C)c1 (centres undefined),,"inconclusive: 89.1 µM [inhibitor, single point]"
Cc1nn(C(=O)c2ccoc2C)c(N)c1-c1ccccc1,,active: 31.6 µM
Cc1ccc(S(=O)(=O)n2cnc3cc([N+](=O)[O-])ccc32)c(C)c1,,"inconclusive: 22.4 µM [inhibitor, single point]"

SMILES,"activity, negative = inhibition",Potency
CC1(C)CC(NC(=S)Nc2ccc(S(N)(=O)=O)cc2)CC(C)(C)N1,,active: 50.1 µM
CCCC(=O)Nc1cccc(-c2cn3c(C)csc3n2)c1,inactive: -4.71%,
Fc1ccccc1CNCCC(Cc1ccccc1)c1ccc2c(c1)OCO2 (centres undefined),,"inconclusive: 39.8 µM [inhibitor, single point]"
O=C(Nc1ccc2[nH]c(=O)[nH]c2c1)c1ccc(Cl)c(Cl)c1,inactive: -47.4% [at 102 µM],
C=CCSc1nccc(-c2nn(-c3ccc(C)cc3)ccc2=O)n1,,active: 50.1 µM
COc1ccc(OC)c(/C=N/Nc2nc(C)cc(=O)[nH]2)c1,,active: 44.7 µM
CCN1C=C(Cc2cccs2)C2=C(C1)C(c1cccs1)C(C#N)=C(N)O2 (centres undefined),,"inconclusive: 31.6 µM [inhibitor, single point]"
CCCOc1cc(C)c(S(=O)(=O)n2nnc3ccccc32)cc1C,,"inconclusive: 39.8 µM [inhibitor, single point]"
COc1ccccc1NS(=O)(=O)c1cc(NC(=O)C(C)C)ccc1N1CCCCC1,,active: 8.91 µM
COc1ccc(N=Cc2c(O)c3ccccc3oc2=O)cc1,,"inconclusive: 79.4 µM [inhibitor, single point]"
CCNC(=S)Nc1sc2c(c1C#N)CCC(C)C2 (centres undefined),,"inconclusive: 39.8 µM [inhibitor, single point]"
COc1ccc(C(CNC(=O)C(Cc2ccccc2)NC(N)=O)N(C)C)cc1 (centres undefined),,active: 39.8 µM
Cc1ccc(C(=O)Nc2ccc(Oc3ccc(C(=O)O)c(C(=O)O)c3)cc2)cc1C,,"inconclusive: 89.1 µM [inhibitor, partial curve, poor fit]"
O=C(NNC1CC(=O)N(c2ccc(Br)cc2)C1=O)c1ccco1 (centres undefined),,"inconclusive: 89.1 µM [inhibitor, partial curve, poor fit]"
O=C(CCC(=O)NCc1ccccc1)NCc1ccccc1,,"inconclusive: 89.1 µM [inhibitor, single point]"
Cc1nc(-c2cc(C#N)c(=O)[nH]c2C)cs1,,"inconclusive: 89.1 µM [inhibitor, partial curve, poor fit]"
CCN(CC)c1ccc(NC(=O)Cn2c(C(C)NC(=O)c3ccc(C)cc3)nc3ccccc32)cc1 (centres undefined),,"inconclusive: 11.2 µM [inhibitor, partial curve, poor fit]"
Cc1c(C)c2c(c(C)c1O)CCC(C)(COc1ccc(Cc3sc(=O)[nH]c3O)cc1)O2 (centres undefined),,"inconclusive: 22.4 µM [inhibitor, single point]"
Cc1ccc(/C=C2\SC(=S)N(CCC(=O)Nc3cccnc3)C2=O)cc1,inactive: 21.6% [at 102 µM],
CCN(CC)c1ccc(CNc2nc3ccccc3n2C(C)C)cc1,inconclusive: -67.4% [inhibitor],
COC(=O)c1c(-n2c(C)cc(C=O)c2C)sc2c1CCCC2,,"inconclusive: 22.4 µM [inhibitor, partial curve, poor fit]"
CCOC(=O)C1=C(CSc2nc(-c3ccccc3)ccc2C#N)OC(N)=C(C#N)C1c1ccccc1 (centres undefined),,"inconclusive: 39.8 µM [inhibitor, single point]"
C=CCN1C(=O)/C(=C/c2ccc(OC)cc2)S/C1=N/c1nccs1,inactive: 11.4%,

SMILES,"activity, negative = inhibition",Potency
COc1ccc(N(C(=O)C(C)C)S(=O)(=O)c2cccc3cccnc23)cc1,inactive: 23%,
O=C(COC(=O)c1cn(-c2ccccc2)nc1-c1ccc(F)cc1)Nc1ncc(Cl)cc1Cl,,"inconclusive: 89.1 µM [inhibitor, single point]"
CC(=O)NN1C(=O)/C(=C\c2ccc(O)cc2)SC1=S,,"inconclusive: 56.2 µM [inhibitor, partial curve, poor fit]"
O=C(COc1ccccc1F)Nc1cc(S(=O)(=O)Nc2cccc(Cl)c2)ccc1O,,"inconclusive: 3.98 µM [inhibitor, single point]"
CCC(=O)N1CCc2cc(S(=O)(=O)NC(C(=O)NCc3ccc(C)cc3)C(C)C)ccc21 (centres undefined),,"inconclusive: 50.1 µM [inhibitor, partial curve, poor fit]"
CCCOc1ccc(CNC(=O)c2[nH]c3cc(OC)ccc3c2Sc2ccccc2)cc1,,"inconclusive: 25.1 µM [inhibitor, single point]"
COc1cccc(-c2nnn(CCc3nn[nH]n3)n2)c1,,"inconclusive: 31.6 µM [inhibitor, single point]"
Cc1cc(Cl)ccc1OCc1nc(-c2ccc(O)cc2)n[nH]1,inconclusive: -55.8% [inhibitor],
CC(=C1C(=O)c2ccccc2C1=O)N1CCN(c2ccccn2)CC1,,"inconclusive: 2 µM [inhibitor, full curve, poor fit]"
Cc1ccc(-c2cc(-c3ccccc3)c(C#N)c(SCC(O)CS(=O)(=O)Cc3ccccc3)n2)cc1 (centres undefined),,"inconclusive: 3.98 µM [inhibitor, full curve, poor fit]"
O=C(CCc1c[nH]c2ccccc12)OCc1cccc([N+](=O)[O-])c1,,active: 39.8 µM
Cc1cccc(OCCCCCNCCO)c1,inactive: -12.8%,
O=C1C(c2ccc(F)cc2)N(CCc2ccccc2)C(=O)CN1C1CCCCCC1 (centres undefined),inactive: 8.15%,
O=C(Cn1cnc2ccccc2c1=O)NCCC(=O)N1CCN(Cc2ccccc2)CC1,inconclusive: -65.7% [inhibitor],
COc1cccc(CNC(=O)CCCCCn2c(=S)[nH]c3ccc(N4CCOCC4)cc3c2=O)c1,,"inconclusive: 89.1 µM [inhibitor, partial curve, poor fit]"
CN(C)CCSc1nc(-c2ccccc2)nc2c1CCCC2,,"inconclusive: 44.7 µM [inhibitor, partial curve]"
CC(C)[C@H](NC(=O)c1ccccc1)C(=O)Nc1cccc(S(=O)(=O)N2CCOCC2)c1,,"inconclusive: 5.01 µM [inhibitor, single point]"
C=CCNCCOCCOc1ccc(Cl)cc1C(C)(C)C,,active: 8.91 µM
COc1ccc(NC(C)c2ccccc2)cc1 (centres undefined),,active: 12.6 µM
Nc1nc(-c2ccc(Oc3ccccc3)cc2)cs1,,"inconclusive: 89.1 µM [inhibitor, single point]"
COC(=O)c1sc(S(=O)(=O)N2CCN(CCO)CC2)c(C(=O)OC)c1C,,"inconclusive: 89.1 µM [inhibitor, single point]"
COc1ccc(CC(=O)NCc2nc3cccnc3n2Cc2ccccc2)cc1,inactive: 35.2%,
CN(C)c1ccc(Nc2ncnc3sc4c(c23)CCCC4)cc1,,"inconclusive: 15.8 µM [inhibitor, partial curve, poor fit]"
